Experimental data published in the supplement of paper PMC12230231.
± gives the standard deviation of the averaged measurements. Restriction of a single-cycle SIVsab GFP reporter by TRIM5α v1-loop variants in CRFK cells. Human variants: read share among cells still uninfected after two challenges over input, higher = gained restriction. Rhesus variants: share among infected cells over input, higher = lost restriction. Reporter dose not given per row. No active / inactive call per row; the paper calls a change when both replicates lie above its controls (mean + 2 SD of stop or wild-type variants, or the top frameshift score). Residues outside the varied loop are taken from Swiss-Prot. The paper reads the human single-substitution scores as noise; they and the rhesus combinations repeat poorly (rank correlation 0.3 to 0.4), indel scores repeat only for the top variants, rhesus substitutions well (0.9).

tested on: SIVsab (simian immunodeficiency virus of sabaeus monkeys), single-cycle GFP reporter, in CRFK cells; assay: enrichment among infected cells over input (fold); higher = weaker restriction; conditions: library: human / rhesus combinations
Experimental: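 Pools of CRFK cells expressing variants of the TRIM5α v1 loop were challenged with the single-cycle reporter, sorted by GFP and sequenced; mean of two replicates.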

Sequence | enrichment
MASGILLNVKEEVTCPICLELLTEPLSLHCGHSFCQACITANHKKSMLYKEGERSCPVCRISYQPENIQPNRHVANIVEKLREVKLSPEEGQKVDHCARHGEKLLLFCQEDSKVICWLCERSQEHRGHHTFLMEEVAQEYHVKLQTALEMLRQKQQEAEKLEADIREEKASWKIQIDYDKTNVSADFEQLREILDWEESNELQNLEKEEEDILKSLTKSETEMVQQTQYMRELISELEHRLQGSMMDLLQGVDGIIKRIENMTLKKPKTFHKNQRRVFRAPDLKGMLDMFRELTDARRYWVDVTLAPNNISHAVIAEDKRQVSSRNPQIMYGARGTRYPSLTNFNYCTGVLGSQSITSGKHYWEVDVSKKSAWILGVCAGFQSDAMYNIEQNENYQPKYGYWVIGLQEGVKYSVFQDGSSHTPFAPFIVPLSVIICPDRVGVFVDYEACTVSFFNITNHGFLIYKFSQCSFSKPVFPYLNPRKCTVPMTLCSPSS [rhesus TRIM5α, 332-344 = GARGTRYPSLT] | 1.81 ± 1.4
MASGILLNVKEEVTCPICLELLTEPLSLHCGHSFCQACITANHKKSMLYKEGERSCPVCRISYQPENIQPNRHVANIVEKLREVKLSPEEGQKVDHCARHGEKLLLFCQEDSKVICWLCERSQEHRGHHTFLMEEVAQEYHVKLQTALEMLRQKQQEAEKLEADIREEKASWKIQIDYDKTNVSADFEQLREILDWEESNELQNLEKEEEDILKSLTKSETEMVQQTQYMRELISELEHRLQGSMMDLLQGVDGIIKRIENMTLKKPKTFHKNQRRVFRAPDLKGMLDMFRELTDARRYWVDVTLAPNNISHAVIAEDKRQVSSRNPQIMYGARGTRYTFQSLTNFNYCTGVLGSQSITSGKHYWEVDVSKKSAWILGVCAGFQSDAMYNIEQNENYQPKYGYWVIGLQEGVKYSVFQDGSSHTPFAPFIVPLSVIICPDRVGVFVDYEACTVSFFNITNHGFLIYKFSQCSFSKPVFPYLNPRKCTVPMTLCSPSS [rhesus TRIM5α, 332-344 = GARGTRYTFQSLT] | 1.64 ± 0.047
MASGILLNVKEEVTCPICLELLTEPLSLHCGHSFCQACITANHKKSMLYKEGERSCPVCRISYQPENIQPNRHVANIVEKLREVKLSPEEGQKVDHCARHGEKLLLFCQEDSKVICWLCERSQEHRGHHTFLMEEVAQEYHVKLQTALEMLRQKQQEAEKLEADIREEKASWKIQIDYDKTNVSADFEQLREILDWEESNELQNLEKEEEDILKSLTKSETEMVQQTQYMRELISELEHRLQGSMMDLLQGVDGIIKRIENMTLKKPKTFHKNQRRVFRAPDLKGMLDMFRELTDARRYWVDVTLAPNNISHAVIAEDKRQVSSRNPQIMYGARGTRYTFPSLVNFNYCTGVLGSQSITSGKHYWEVDVSKKSAWILGVCAGFQSDAMYNIEQNENYQPKYGYWVIGLQEGVKYSVFQDGSSHTPFAPFIVPLSVIICPDRVGVFVDYEACTVSFFNITNHGFLIYKFSQCSFSKPVFPYLNPRKCTVPMTLCSPSS [rhesus TRIM5α, 332-344 = GARGTRYTFPSLV] | 1.62 ± 1.2
MASGILLNVKEEVTCPICLELLTEPLSLHCGHSFCQACITANHKKSMLYKEGERSCPVCRISYQPENIQPNRHVANIVEKLREVKLSPEEGQKVDHCARHGEKLLLFCQEDSKVICWLCERSQEHRGHHTFLMEEVAQEYHVKLQTALEMLRQKQQEAEKLEADIREEKASWKIQIDYDKTNVSADFEQLREILDWEESNELQNLEKEEEDILKSLTKSETEMVQQTQYMRELISELEHRLQGSMMDLLQGVDGIIKRIENMTLKKPKTFHKNQRRVFRAPDLKGMLDMFRELTDARRYWVDVTLAPNNISHAVIAEDKRQVSSRNPQIMYQAPGTRYTFQTFTNFNYCTGVLGSQSITSGKHYWEVDVSKKSAWILGVCAGFQSDAMYNIEQNENYQPKYGYWVIGLQEGVKYSVFQDGSSHTPFAPFIVPLSVIICPDRVGVFVDYEACTVSFFNITNHGFLIYKFSQCSFSKPVFPYLNPRKCTVPMTLCSPSS [rhesus TRIM5α, 332-344 = QAPGTRYTFQTFT] | 1.17 ± 0.092
MASGILLNVKEEVTCPICLELLTEPLSLHCGHSFCQACITANHKKSMLYKEGERSCPVCRISYQPENIQPNRHVANIVEKLREVKLSPEEGQKVDHCARHGEKLLLFCQEDSKVICWLCERSQEHRGHHTFLMEEVAQEYHVKLQTALEMLRQKQQEAEKLEADIREEKASWKIQIDYDKTNVSADFEQLREILDWEESNELQNLEKEEEDILKSLTKSETEMVQQTQYMRELISELEHRLQGSMMDLLQGVDGIIKRIENMTLKKPKTFHKNQRRVFRAPDLKGMLDMFRELTDARRYWVDVTLAPNNISHAVIAEDKRQVSSRNPQIMYGARGTLFTFPTLTNFNYCTGVLGSQSITSGKHYWEVDVSKKSAWILGVCAGFQSDAMYNIEQNENYQPKYGYWVIGLQEGVKYSVFQDGSSHTPFAPFIVPLSVIICPDRVGVFVDYEACTVSFFNITNHGFLIYKFSQCSFSKPVFPYLNPRKCTVPMTLCSPSS [rhesus TRIM5α, 332-344 = GARGTLFTFPTLT] | 0.198 ± 0.044
MASGILLNVKEEVTCPICLELLTEPLSLHCGHSFCQACITANHKKSMLYKEGERSCPVCRISYQPENIQPNRHVANIVEKLREVKLSPEEGQKVDHCARHGEKLLLFCQEDSKVICWLCERSQEHRGHHTFLMEEVAQEYHVKLQTALEMLRQKQQEAEKLEADIREEKASWKIQIDYDKTNVSADFEQLREILDWEESNELQNLEKEEEDILKSLTKSETEMVQQTQYMRELISELEHRLQGSMMDLLQGVDGIIKRIENMTLKKPKTFHKNQRRVFRAPDLKGMLDMFRELTDARRYWVDVTLAPNNISHAVIAEDKRQVSSRNPQIMYQARGTRYTFQTFVNFNYCTGVLGSQSITSGKHYWEVDVSKKSAWILGVCAGFQSDAMYNIEQNENYQPKYGYWVIGLQEGVKYSVFQDGSSHTPFAPFIVPLSVIICPDRVGVFVDYEACTVSFFNITNHGFLIYKFSQCSFSKPVFPYLNPRKCTVPMTLCSPSS [rhesus TRIM5α, 332-344 = QARGTRYTFQTFV] | 1.29 ± 0.96
MASGILLNVKEEVTCPICLELLTEPLSLHCGHSFCQACITANHKKSMLYKEGERSCPVCRISYQPENIQPNRHVANIVEKLREVKLSPEEGQKVDHCARHGEKLLLFCQEDSKVICWLCERSQEHRGHHTFLMEEVAQEYHVKLQTALEMLRQKQQEAEKLEADIREEKASWKIQIDYDKTNVSADFEQLREILDWEESNELQNLEKEEEDILKSLTKSETEMVQQTQYMRELISELEHRLQGSMMDLLQGVDGIIKRIENMTLKKPKTFHKNQRRVFRAPDLKGMLDMFRELTDARRYWVDVTLAPNNISHAVIAEDKRQVSSRNPQIMYGARGTRYTFQTLTNFNYCTGVLGSQSITSGKHYWEVDVSKKSAWILGVCAGFQSDAMYNIEQNENYQPKYGYWVIGLQEGVKYSVFQDGSSHTPFAPFIVPLSVIICPDRVGVFVDYEACTVSFFNITNHGFLIYKFSQCSFSKPVFPYLNPRKCTVPMTLCSPSS [rhesus TRIM5α, 332-344 = GARGTRYTFQTLT] | 1.03 ± 0.18
MASGILLNVKEEVTCPICLELLTEPLSLHCGHSFCQACITANHKKSMLYKEGERSCPVCRISYQPENIQPNRHVANIVEKLREVKLSPEEGQKVDHCARHGEKLLLFCQEDSKVICWLCERSQEHRGHHTFLMEEVAQEYHVKLQTALEMLRQKQQEAEKLEADIREEKASWKIQIDYDKTNVSADFEQLREILDWEESNELQNLEKEEEDILKSLTKSETEMVQQTQYMRELISELEHRLQGSMMDLLQGVDGIIKRIENMTLKKPKTFHKNQRRVFRAPDLKGMLDMFRELTDARRYWVDVTLAPNNISHAVIAEDKRQVSSRNPQIMYGARGTLYTFQTFVNFNYCTGVLGSQSITSGKHYWEVDVSKKSAWILGVCAGFQSDAMYNIEQNENYQPKYGYWVIGLQEGVKYSVFQDGSSHTPFAPFIVPLSVIICPDRVGVFVDYEACTVSFFNITNHGFLIYKFSQCSFSKPVFPYLNPRKCTVPMTLCSPSS [rhesus TRIM5α, 332-344 = GARGTLYTFQTFV] | 0.978 ± 0.51
